# In publication PMC4336329 (PLoS ONE, 2015):
# Hit rate of the full screen: of about 310,000 compounds, about 14,000 (4.5%) showed an effect of 50% or more. The effect is printed as a negative number. Some of the results follow.
# Biological target: human ether-à-go-go-related gene (hERG) potassium channel (human, UniProt Q12809)
# Assay: primary screen, population patch clamp on CHO cells stably expressing hERG
# 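Also: peak tail current of the secondary pulse compared with the same well before compound.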
# Chain of human ether-à-go-go-related gene (hERG) potassium channel (Q12809 whole entry, looked up): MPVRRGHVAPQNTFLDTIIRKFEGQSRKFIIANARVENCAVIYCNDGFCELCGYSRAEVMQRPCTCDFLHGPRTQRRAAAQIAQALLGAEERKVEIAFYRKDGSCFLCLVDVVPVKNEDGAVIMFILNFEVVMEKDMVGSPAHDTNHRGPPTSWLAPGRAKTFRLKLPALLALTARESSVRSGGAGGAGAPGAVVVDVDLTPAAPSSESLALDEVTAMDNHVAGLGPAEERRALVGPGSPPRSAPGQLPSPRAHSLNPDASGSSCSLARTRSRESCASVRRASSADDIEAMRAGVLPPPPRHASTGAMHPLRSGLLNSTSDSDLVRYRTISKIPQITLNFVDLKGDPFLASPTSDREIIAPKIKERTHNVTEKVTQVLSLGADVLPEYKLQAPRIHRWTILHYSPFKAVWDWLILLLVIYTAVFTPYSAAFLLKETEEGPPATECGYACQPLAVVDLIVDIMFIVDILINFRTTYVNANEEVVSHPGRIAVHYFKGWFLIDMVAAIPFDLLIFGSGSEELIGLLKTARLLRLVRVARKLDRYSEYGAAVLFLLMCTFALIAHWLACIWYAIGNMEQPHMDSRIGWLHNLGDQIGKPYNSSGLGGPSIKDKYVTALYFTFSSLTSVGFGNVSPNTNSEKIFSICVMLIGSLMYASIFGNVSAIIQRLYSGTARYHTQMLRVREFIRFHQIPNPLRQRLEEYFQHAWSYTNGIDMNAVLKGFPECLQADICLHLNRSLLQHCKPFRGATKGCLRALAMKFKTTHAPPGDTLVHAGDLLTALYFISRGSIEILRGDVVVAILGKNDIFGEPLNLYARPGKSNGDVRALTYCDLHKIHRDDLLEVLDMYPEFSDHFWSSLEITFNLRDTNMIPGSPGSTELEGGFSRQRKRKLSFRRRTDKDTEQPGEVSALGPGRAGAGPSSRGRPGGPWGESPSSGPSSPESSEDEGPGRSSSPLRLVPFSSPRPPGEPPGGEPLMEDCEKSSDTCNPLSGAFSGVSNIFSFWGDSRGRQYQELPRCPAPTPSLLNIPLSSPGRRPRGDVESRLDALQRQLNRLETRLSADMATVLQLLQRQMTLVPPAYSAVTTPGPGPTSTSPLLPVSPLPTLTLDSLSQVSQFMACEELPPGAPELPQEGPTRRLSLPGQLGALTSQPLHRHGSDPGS
row,SMILES,"hERG current change (%, negative = inhibition) at 10uM [%]"
1,O=C1c2ccccc2-c2nnc(-c3ccc(O)cc3)cc21,12.6
2,NC(=O)c1ccsc1NC(=O)COC(=O)Cc1ccccc1,-28.6
3,CCc1c(O)nc(SCC(=O)Nc2ccc(Br)cc2)n(-c2ccc(C)cc2)c1=O,11.2
4,O=C(N/N=C/c1ccco1)C1CC1c1ccccc1 (stereo not shown),-4.18
5,CCOc1cc(C(c2c(C)[nH][nH]c2=O)c2c(C)[nH][nH]c2=O)ccc1OS(=O)(=O)c1ccccc1,-4.25
6,O=C(CCCNS(=O)(=O)c1cccc2nsnc12)NC1CCCCC1,2.47
7,CC(=O)Nc1c2c(nn1-c1ccccc1C)CSC2,17.4
8,Clc1ccc(N=C2SCC3CCCCN23)cc1 (stereo not shown),-18.3
9,CCCCC(O)(CCCC)C(=O)N/N=C(\C)c1ccc(Cl)cc1,-66.9
10,O/N=C/c1ccc(-c2cc(Cl)ccc2Cl)o1,-3.51
11,CCCCn1c(N)c(N(CC)C(=O)c2cc(CC)c(C)s2)c(=O)[nH]c1=O,-15.6
12,O=C(N/N=C/c1ccccc1)c1ccc(OCc2ccccc2)cc1,16.7
13,O=C(NCCNC(=O)c1ccc(Cl)cc1Cl)c1ccco1,3.04
14,Cc1ccc(C(=O)Nc2onc(C)c2C#N)cc1,11.6
15,Cc1cnc(NC2=NCCC2)s1,5.05
16,Cc1ccc(O)c(NC(=O)c2ccc3c(c2)C(=O)N(Cc2ccco2)C3=O)c1,3.81
17,Cc1ccc(O)c(N)c1,10.2
18,O=C(Cn1ncc2c(=O)oc3ccccc3c21)NCC1COc2ccccc2O1 (stereo not shown),-5.89
19,O=C(NCc1ccccc1)c1ccccc1NC(=O)C1CCCCC1,-3.3
20,CCN1C(=O)[C@H]2[C@@H](c3ccc(-c4ccccc4)cc3)N[C@@](Cc3ccccc3)(C(=O)OC)[C@H]2C1=O.O=C(O)C(F)(F)F,-6.56
21,Cc1cc(C)c(-n2[nH]nnc2=S)c(C)c1,21.7
22,CC(NC(=O)Nc1ccc(F)cc1F)c1ccncc1 (stereo not shown),9.6
23,COc1ccc(C(=O)NCCS(=O)(=O)N(C)C2CCCCC2)cc1,-19.7

row,SMILES,"hERG current change (%, negative = inhibition) at 10uM [%]"
1,Cc1nc(CN2CCN(C(=O)c3ccc(C(C)(C)C)cc3)CC2)cs1.Cl,-3.25
2,CC(NS(=O)(=O)c1ccc(N)cc1)C1CC2CCC1C2 (stereo not shown),-2.43
3,COc1ccccc1N(C(=O)CN1C(=O)c2ccccc2S1(=O)=O)C(C(=O)NCC1CCCO1)c1ccc(F)cc1 (stereo not shown),-5.06
4,NS(=O)(=O)c1ccc(CNC(=O)Cc2c(F)cccc2Cl)cc1,22.2
5,CCCc1nc(SCC(=O)N2CCc3ccccc3C2)c2ccccc2n1,-29.1
6,COCCCNC(=O)Nc1ccc2c(c1)N(C)C(=O)CS2,4.45
7,CCOC(=O)Cc1csc(NS(=O)(=O)c2ccc(OC)cc2)n1,8.9
8,O=c1[nH]c(Cl)ccc1CN1CCOCC1,14.5
9,CCNc1nc(=S)nc(NCc2ccccc2)[nH]1,14.5
10,CCc1nnc2sc(-c3ccc(NC(=O)c4ccco4)cc3)nn12,0.717
11,O=C(O)c1ccc2c3c(cccc13)C(=O)N(OS(=O)(=O)c1ccccc1)C2=O,12.6
12,CCc1ccc2c(COC(=O)c3n[nH]c4ccccc34)cc(=O)oc2c1,-1.27
13,CCN(CC)C(=O)COc1ccc(S(=O)(=O)N2CCCC2)cc1,12.3
14,Cn1ncc([N+](=O)[O-])c1C(=O)Nc1ccc(-c2nc3ccccc3[nH]2)cc1,-25
15,Cc1c(NS(=O)(=O)c2cccs2)cccc1-c1nc2cccnc2s1,2.89
16,COc1cc(C=O)c(Br)cc1OCC(=O)NCCc1ccccc1,31.7
17,Cc1cccc(NS(=O)(=O)c2nnc(NC(=O)c3ccc(C)c(C)c3)s2)c1,1.76
18,CC(=C\C(=O)O)/C(=C/c1ccco1)C(=O)O,10.8
19,Cc1ccc(C(C)n2cc(C(=O)NCc3ccccn3)nn2)cc1 (stereo not shown),7.89
20,NC(=O)CN(c1ccc([N+](=O)[O-])cc1)S(=O)(=O)c1ccccc1,-22.1
21,CC1CCCCN1CCNC(=O)C1CC(=O)N(c2ccc(F)c(Cl)c2)C1 (stereo not shown),-56.9
22,CC1(C)Cc2c(sc3nc(C4CCCCC4)n(N)c(=O)c23)CO1,18.2
23,CC(C)C1Cc2nc(Cl)c(C#N)cc2CO1 (stereo not shown),4.05

row,SMILES,"hERG current change (%, negative = inhibition) at 10uM [%]"
1,CC(=O)N(CN1C(=O)CCC1=O)c1ccc(Cl)c(Cl)c1,15.6
2,COc1ccc(CNc2nc3nc(C)c(Cl)c(=O)n3[nH]2)cc1OC,6.38
3,Cc1cn(C2C=CC(CO)O2)c(=O)[nH]c1=O (stereo not shown),4.79
4,COC(=O)Cc1c(C)c2ccc(OC(C)C)cc2oc1=O,-13.7
5,CCCCN(C(=O)CNC(=O)c1ccco1)C(C(=O)NC1CCCCC1)c1cccnc1 (stereo not shown),-3.24
6,Cc1cc(C)c2nc(NC(=O)c3ccco3)sc2c1,3.16
7,CN1CCC(NC(=O)Nc2ccc(Br)cc2)CC1,-19.7
8,Cc1[nH]c(=O)[nH]c(=S)c1C(=O)Nc1ccc(Cl)c(Cl)c1,22.1
9,CCn1c(SCC(=O)O)nnc1C1CCCCC1,-5.26
10,O=C(Nc1c(S(=O)(=O)c2ccccc2)csc1Br)c1ccccc1Cl,-0.642
11,COC(=O)[C@@H]1C[C@@H]2CC[C@@H](O)C[C@@H]2N1Cc1ccc(C(F)(F)F)cc1,-1.34
12,Cn1c(CSCc2ccc(F)cc2)nnc1SCC(=O)Nc1cccc(C(=O)O)c1,9.71
13,COCCNC(=O)CCn1nc(-c2ccc(Cl)cc2)ccc1=O,-30.2
14,CC1CN(S(=O)(=O)c2cccc(C(=O)OC/C(O)=C(\C#N)c3nc4ccccc4[nH]3)c2)CC(C)O1 (stereo not shown),-11.4
15,COC(=O)C1CCC(C)(C(=O)Nc2ccccc2)C1(C)C (stereo not shown),9.52
16,O=C(NCC1CCCO1)C1CCN(C2CCN(C3CCCCCC3)CC2)CC1 (stereo not shown),28.4
17,COC(=O)CCC(=O)OC1(C)C(=O)C=C2C=C(C3CC3)N(Cc3ccco3)C=C2C1=O (stereo not shown),1.83
18,Cc1cc[n+](-c2nc([O-])sc2/C=N/Nc2ccc([N+](=O)[O-])cc2)cc1,12.3
19,CSc1nnc2c(n1)c(C)nn2-c1cccc(C)c1,-8.1
20,CCOc1ccc(NC(=O)COC(=O)c2ccc3c(c2)OCO3)cc1,11.2
21,Cc1[nH]oc(=O)c1N=Nc1ccccc1,3.36
22,Cc1ccccc1CNC(=O)C1CCC(=O)N(Cc2cccc(F)c2)C1 (stereo not shown),-8.38
23,NC(=O)c1nsc(C(=O)N(CC(=O)NC2CCCCC2)c2cccc(F)c2)c1N,0.907

row,SMILES,"hERG current change (%, negative = inhibition) at 10uM [%]"
1,Cc1cc(C)n(-c2nncn2NC(=O)c2ccc(Cl)cc2O)n1,4.97
2,COCCn1cnnc1SCC(=O)Nc1ccc(N2CCCCC2)cc1,6.16
3,Cc1ccc(CSc2nnc(-c3ccco3)n2N)cc1,-0.665
4,CCOc1ccc(S(=O)(=O)Nc2cccc(C(=O)N3CCN(C(C)=O)CC3)c2)cc1,-14.9
5,CCc1ccc(S(=O)(=O)N2CCN(C(=O)C3CCN(C(C)=O)CC3)CC2)cc1,2.63
6,Cc1ccc(NC(=O)c2cccs2)cc1NC(=O)c1ccc(F)cc1,0.179
7,O=C1CC(=O)N(c2ccc3c(c2)OCO3)C(=O)N1,4.28
8,CCCS(=O)(=O)N1CCCC(C(=O)NCCN2CCOCC2)C1 (stereo not shown),13.7
9,O=[N+]([O-])C(/C=C(\Cl)[N+](=O)[O-])=C(N1CCCCC1)N1CCCCC1,3.43
10,COc1cccc(OCCOc2ccc(/C=C3\C(=N)N4N=C(S(C)(=O)=O)SC4=NC3=O)cc2OC)c1,23.4
11,CC(C)COn1c(=S)[nH]c2ccccc2c1=O,7.07
12,Cc1ccc(C)n1-c1ccc(C(=O)O)cc1,22.5
13,CCN(CC)CCN(C(=O)C1=COCCO1)c1nc2c(OC)ccc(OC)c2s1.Cl,-78.3
14,CCC(C(=O)NCCc1ccco1)n1nc(C)c2c(C)n(-c3ccccc3)nc2c1=O (stereo not shown),-0.308
15,COCC(=O)N(Cc1cc2cc(OC)ccc2[nH]c1=O)c1ccccc1OC,-8.1
16,COC(=O)CCCC(=O)N1CCOCCN(C(=O)CCCC(=O)OC)CCOCC1,3.12
17,CCn1ncc([N+](=O)[O-])c1C(=O)Nc1cc(C)on1,-0.655
18,CCCCN(C(=O)c1cc(-c2ccco2)nc2ccccc12)c1c(N)n(CCC)c(=O)[nH]c1=O,10.1
19,O=C(Nn1cnnc1)c1cc(Br)ccc1Cl,14.5
20,Cc1cccc(OCC(=O)Nc2nnc(-c3ccco3)s2)c1,-1.94
21,O=C(NCCCc1ccccc1)c1ccc(Br)o1,-37.8
22,N#Cc1c(N)n(CCOC(=O)c2cccc(Br)c2)c2nc3ccccc3nc12,6.57
